Assay results: the supplement of paper PMC11417369
± gives the standard deviation of the averaged measurements. The list shows a part of the results.

Each sequence was assayed on PfAP2-I AP2 domain 3 (GST-tagged) (assay: gcPBM binding intensity (ln(normalized median fluorescence intensity)); higher = stronger DNA binding).
Method in brief: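 Binding intensity is defined as the maximum Masliner-normalised natural-log median intensity across replicate spots for either probe orientation. It was measured on an Agilent 4 × 180k array of primer-extended double-stranded 36-bp intergenic genomic probes and negative controls, to which GST-tagged P. falciparum DNA-binding domains made in E. coli were applied for 1 h in 1× PBS with 1% milk, 0.2 mg/ml BSA, 0.5% salmon testes DNA and 0.03% Triton X-100. Detection was by Alexa488 anti-GST antibody and scanning at 488 nm.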

| Sequence | gcPBM binding intensity (ln) |
| --- | --- |
| CGTACATAATTTTAATCACACACAAACAAACACATA [CACACA_site7947] | 8.125 ± 0.078 |
| AAGACACAAAAACACACACACATACATACATACATA [CACACA_site454] | 8.13 ± 0.66 |
| TATGTTGATGATGATAGTACATATGAGTTCAAAAAA [XGTACX_site7712] | 7.97 ± 0.71 |
| TAAATATTTATAAACACACAAATATTTATATTTATA [CACACA_site6166] | 7.41 ± 0.4 |
| TTTATTTATTAATACACACACACACGCCCACAAAAT [CACACA_site6253] | 8.88 ± 0.099 |
| AGGGACATATATATCACACACAAAAATTAGTCCCTT [CACACA_site2778] | 7.66 ± 0.64 |
| AAATAGAGAAATACAAGTACATATCAAACCAATCTA [XGTACX_site2756] | 7.61 ± 0.45 |
| TAAAAATATAGGTATACACACATATAAATATAAATA [CACACA_site7785] | 7.69 ± 0.41 |
| CTTATACATAAATTTTGTACACACAAAAAAAAAAAA [XGTACX_site2665] | 8.31 ± 0.58 |
| ATAAATATAAATATATGTACATATATATATATATAT [XGTACX_site7433] | 9.38 ± 0.18 |
| GATTTTAAAATAATTACACACTTGATTATGTCCAAA [CACACA_site3491] | 7.78 ± 0.42 |
| GAAAGGGCAGGAACTATTAATACACTGATCGATAAG [CACACA_negctrl_site1458] | 8.11 ± 0.66 |
| AATTATAGCTGTATCTGTACGCATTTATTTATAGAC [XGTACX_site5959] | 8.21 ± 0.2 |
| TTAAATAATATTAGCCGTACAATTTAAAGATAATAA [XGTACX_site8503] | 7.66 ± 0.48 |
| TTTAATACTTTATATGCATGCAGAGAAAAATGCTTG [TGCATGCA_site286] | 7.76 ± 0.55 |
| ATGAATATAATGAAGTGTACATAAAAATAATAAATA [XGTACX_site2481] | 7.97 ± 0.42 |
| ATACATATAGGATGCACACATAATTCAAATACAATA [CACACA_site651] | 8.27 ± 0.46 |
| TTTGAAATATATTTAGTGCATATATATTGATTATAA [GTGCAC_site9604] | 10.4 ± 0.34 |
| CAATTTTGCCCTTCCTGTACATATATTGAAAAATAT [XGTACX_site6388] | 8.46 ± 0.15 |
| ATCTAGTACATACATACACACAACAATGTTATGAGA [CACACA_site3989] | 7.95 ± 0.4 |
| ATATTAAACAGACACACACACATATATTTATTTATA [CACACA_site7564] | 7.88 ± 0.52 |
| TATAGCATATCTCACACACACATAATGAATATTATA [CACACA_site5877] | 7.58 ± 0.59 |

| Sequence | gcPBM binding intensity (ln) |
| --- | --- |
| TATAGCTATGTATTCACACATAATATAAACTTTAAT [CACACA_site5889] | 7.54 ± 0.43 |
| AAAATGAACTCACGAGCACACACACCCATATATATA [CACACA_site8247] | 8.24 ± 0.68 |
| TGTATTATATAAAATTGTACATGCGAATTGTATAAC [XGTACX_site902] | 8.02 ± 0.39 |
| ATTGTTTTATATAGAACACACATAAAAATATATATG [CACACA_site1193] | 7.72 ± 0.33 |
| ATAAAATGAAATATATATGTGTATGCTTAACTTGTT [CACACA_negctrl_site431] | 7.58 ± 0.74 |
| AAAGGATGTAATATAAACATATATATGTATATATAT [TGCATGCA_negctrl_site347] | 8.04 ± 0.66 |
| TAATTTTTTTTAATAACACACATATATATATATATA [CACACA_site813] | 9.3 ± 0.33 |
| TAATATTCCTTTTTAACACACATATGAACAAATAAA [CACACA_site153] | 7.87 ± 0.31 |
| TAAAAATTTACATGTTGTACATATAATTATATAATC [XGTACX_site4577] | 7.82 ± 0.22 |
| AGGCTGCCATATTATACACACATTTTTAAAAAAATT [CACACA_site3843] | 8.02 ± 0.4 |
| AAATATTACCATGTGAAAATTTTACTGCAACATGAA [TGCATGCA_negctrl_site609] | 8.74 ± 0.14 |
| TAAAATTCGAAAAATTGTACTATTTATATATCTGTA [XGTACX_site6478] | 7.36 ± 0.4 |
| TAGTTAGGCCCTACATGTACATAATATATATTACTT [XGTACX_site1137] | 8.15 ± 0.59 |
| ATCAACATTACATTTAGTACACATATATTTCTATGT [XGTACX_site4436] | 8.16 ± 0.36 |
| CTAATTAATATTTGTACACACATATTTAACCTACTA [CACACA_site3191] | 8.01 ± 0.38 |
| TATATAAGTATAAAATGTACATAAAATTTTATGTTA [XGTACX_site2613] | 7.69 ± 0.35 |
| ACAAAATGTAAATAAACACACATATTTATATTTATA [CACACA_site6719] | 7.5 ± 0.32 |
| AATTCACCAAAAAAAGTGCATATTCAATATATATTA | 9.39 ± 0.15 |
| AATAAAATATTATGTGCATGCTGTTTTATTTATTAA [TGCATGCA_site102] | 7.75 ± 0.69 |
| TTGGTGGATAAATTTACACACAATAATTTTCGTTCA [CACACA_site467] | 8.44 ± 0.18 |
| ATAATTTCAATATTTAATATCATATATATATATTTT [GTGCAC_negctrl_site713] | 7.83 ± 0.34 |
| TAAAACAAAACAAAAATAGGATTATATTCCTTTTTT [CACACA_negctrl_site1003] | 7.23 ± 0.59 |

| Sequence | gcPBM binding intensity (ln) |
| --- | --- |
| ATATATATATATATATGTACATATGTGTATATAACT [XGTACX_site495] | 9.4 ± 0.54 |
| AAATAAAAAAATACCCAACACCATGCCAAATGTGAA [CACACA_negctrl_site411] | 7.58 ± 0.66 |
| TTTTTTTTCTTTTTTTTTTTTTCAAAAGCTTATAAT [CACACA_negctrl_site1526] | 7.63 ± 0.55 |
| GTGTATTTGGTGCGCACACACATGCAAAAAGAAATA [CACACA_site4768] | 10.4 ± 0.39 |
| TGTATAATCATATATACACACACATATATATATATA [CACACA_site8674] | 9.36 ± 0.44 |
| TTATATAAAAAAAAATGTACATATAATTGGTAAATT [XGTACX_site5180] | 7.92 ± 0.6 |
| AAAAATATTTAAAATACACACATATATATAATATAT [CACACA_site2006] | 7.61 ± 0.39 |
| TTGAAAATAATATGAAGTACATTATTTTTTTTTAAT [XGTACX_site4499] | 7.59 ± 0.49 |
| AAAACTTTCCATGTTTGTACATAAAATATAATAATT [XGTACX_site2716] | 7.71 ± 0.43 |
| CTTGAAAGATTTTATTGTACTCATAAGATACATTTC [XGTACX_site3178] | 7.5 ± 0.3 |
| TCATACAATATTAAATGTACATATATATATATATAT [XGTACX_site8828] | 9.04 ± 0.74 |
| ATATTAAAGCCTTTTTGTACATATAAATAAACATAG [XGTACX_site4667] | 7.95 ± 0.36 |
| ATTTTTTTTTTTTTTTTTCATTTTTTTTTTTTTTTT [CACACA_negctrl_site1204] | 8.22 ± 0.35 |
| TATATATTATATATATGTACATAATTCCATGTTTAG [XGTACX_site3943] | 7.78 ± 0.46 |
| AACTCTTAAAAATAAACATGCAAATATTTACCTTCT [TGCATGCA_site986] | 7.64 ± 0.76 |
| TAAATAATTCTTTTAGTACACACGAATAAGCAGATA [CACACA_site305] | 7.99 ± 0.35 |
| GTTACATACATATACACACACATATATATATATATA [CACACA_site901] | 9.16 ± 0.4 |
| TAATTTTTATTCAAGAGTACACAAAAGATAACTAAA [XGTACX_site4060] | 7.9 ± 0.21 |
| TAGATACCTATAGAAACATGCAATTGAATATATTTC [TGCATGCA_site402] | 7.6 ± 0.41 |
| TTCTTACACGTTTGCACACTAAAATATATATATATA [CACACA_site434] | 9.465 ± 0.021 |
| TAAAAAAAATCATTCACACATATATGAAAAAAAAAA [CACACA_site5546] | 7.46 ± 1 |
| AAAAAATGAAAATATTCCAAAATAGAGGGAAATGTA [GTGCAC_negctrl_site572] | 7.85 ± 0.57 |

| Sequence | gcPBM binding intensity (ln) |
| --- | --- |
| TATGTGATAACACGCACACAAATGTATTTAATTTAT [CACACA_site5435] | 7.71 ± 0.4 |
| CACAAAAATGTAATCACACATATATATATATATATA [CACACA_site5818] | 9.37 ± 0.46 |
| CTTTTTTAAAATATTTAACACACAATTTTAATGCAT [CACACA_site9303] | 8.24 ± 0.29 |
| AAAATTAGGAGACATGCATGTAACGATAAATATAAC [TGCATGCA_site148] | 8.02 ± 0.86 |
| TTATATTTATATATTTGTACGTATGTATATAATTCA [XGTACX_site2993] | 7.67 ± 0.3 |
| ATTCTAATAATATATACACACACATATATATTTATA [CACACA_site8629] | 7.96 ± 0.35 |
| ATATAAATATTTATTAGTACACATTAGTGTAGTTTT [XGTACX_site4493] | 7.91 ± 0.56 |
| CTATATTATTTTTCTTGTACGTAGGAAATATAGCTA [XGTACX_site6176] | 9.56 ± 0.4 |
| GGTGGCTAAATTACAACACACGACGGAATATTATAT [CACACA_site4114] | 8.29 ± 0.33 |
| AATATATGGTTTCATTATATTAAATTCAATTTAATG [CACACA_negctrl_site675] | 7.38 ± 0.49 |
| ACCGTGGGAAGACACACACACACACCCACATATATA [CACACA_site333] | 8.24 ± 0.78 |
| TTTTATTCATTGAGCACACAAAATAAATTATCAAAA [CACACA_site3279] | 8.39 ± 0.028 |
| AGTATATAATAATTTACACACAAAAAAATATCAGGA [CACACA_site3517] | 7.82 ± 0.59 |
| TGATTTATCTATATTTTATAAGTTATTTATTTTTTT [CACACA_negctrl_site1603] | 7.05 ± 0.4 |
| TTTTATAATGTTGTAGTGCAAAATACGTATATTTAT [GTGCAC_site9826] | 10.3 ± 0.36 |
| AATAAATATATGTACACACACAAATATATACATATC [CACACA_site1903] | 8.04 ± 0.29 |
| GAAAATTATATGTGTTGTACACTTGCAACAACTATT [XGTACX_site3637] | 7.74 ± 0.51 |
| AAAATATATATTAACACACACACAAAAAAAAAAAAA [CACACA_site1325] | 7.99 ± 0.64 |
| AGATATAAGAAAAGCACACACACACCCAAAAAAAAA [CACACA_site2826] | 8.66 ± 0.38 |
| TGGAGGATAGTTCACAGTACCCAGTAACTCTACGGA [XGTACX_site4930] | 7.36 ± 0.61 |
| AAAGTATAAATAAATACACACATATATATATATATA [CACACA_site2892] | 9.32 ± 0.33 |
| AACCATAACTCATATGCACACATAAATATTACATAT [CACACA_site9273] | 8.81 ± 0.42 |
